From the supplement of paper PMC8512760
Structures can show the parent of a compound that is named as a salt. The list shows a part of the results. Repeats are few or missing, and single values can be far off.

Assays:
Test in all cases: cell viability relative to vehicle (% of vehicle); basal-like triple-negative breast cancer lines; higher = less cytotoxic
Details in all cases: 10 µM; 72 h
HCC-1143 = system: HCC-1143
HCC-1187 = system: HCC-1187
MDA-468 = system: MDA-468
SUM-149 = system: SUM-149
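Also: stably firefly luciferase-GFP labeled cells in 96-well plates, viability read as luciferase photon flux after d-luciferin addition, treated wells normalized to vehicle wells, single-dose high-throughput screen.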

| SMILES | cell viability (HCC-1143) | cell viability (HCC-1187) | cell viability (MDA-468) | cell viability (SUM-149) |
| --- | --- | --- | --- | --- |
| CC1(C(=O)[O-])CCC2(C)CCC3(C)C(=CC(=O)C4C5(C)CCC(OC(=O)CCC(=O)[O-])C(C)(C)C5CCC43C)C2C1.[Na+].[Na+] (configuration not stated) [Carbenoxolone disodium] | 77 | 92.2 | 94.6 | 87.8 |
| CC(=O)OCC[N+](C)(C)C.[Cl-] [Acetylcholine Chloride] | 73.8 | 88.1 | 86.3 | 93.8 |
| FC(F)(F)c1ccc(CNc2ccc(Cc3c[nH]c4ncc(Cl)cc34)cn2)cn1 [Pexidartinib (PLX3397)] | 83.8 | 88.9 | 103 | 102 |
| Cc1c(-c2ccccc2)oc2c(C(=O)OCCN3CCCCC3)cccc2c1=O.Cl [Flavoxate hydrochloride] | 70 | 91.3 | 130 | 109 |
| CC(C)Cc1ccc(C(C)C(=O)O)cc1.NCCCCC(N)C(=O)O (configuration not stated) [Ibuprofen Lysine] | 73.5 | 65.5 | 78.5 | 101 |
| CN(C)CCC(c1ccccc1)c1ccccn1.O=C(O)C=CC(=O)O (configuration not stated) [Pheniramine Maleate] | 98.5 | 93.7 | 115 | 103 |
| CC(=O)Nc1ccc(O)cc1 [Acetaminophen] | 97.6 | 95.3 | 118 | 105 |
| CCCc1nc(C(C)(C)O)c(C(=O)OCc2oc(=O)oc2C)n1Cc1ccc(-c2ccccc2-c2nn[nH]n2)cc1 [Olmesartan medoxomil] | 113 | 75.4 | 105 | 142 |
| O=C(O)/C=C/c1ccc(O)c(O)c1 [Caffeic acid] | 78.5 | 80 | 106 | 102 |
| CC1CCN(C(=O)CC#N)CC1N(C)c1ncnc2[nH]ccc12 (configuration not stated) | 73.6 | 58.6 | 56.3 | 101 |
| COC(=O)Nc1nc2ccc(C(=O)c3ccc(F)cc3)cc2[nH]1 [Flubendazole] | 63.3 | 33 | 131 | 122 |
| N#CC1CCCN1C(=O)CNC12CC3CC(CC(O)(C3)C1)C2 (configuration not stated) [Vildagliptin (LAF-237)] | 120 | 101 | 97.3 | 119 |
| COc1c(N2CC3CCCNC3C2)c(F)cc2c(=O)c(C(=O)O)cn(C3CC3)c12.Cl (configuration not stated) [Moxifloxacin HCl] | 88 | 86.7 | 91.1 | 139 |
| CCNC(=O)CCCC=CCC1C(O)CC(O)C1C=CC(O)CCc1ccccc1 (configuration not stated) [Bimatoprost] | 82.8 | 79.3 | 93.5 | 108 |
| C#Cc1cccc(Nc2ncnc3cc(OC)c(OCCCCCCC(=O)NO)cc23)c1 | 66 | 76.7 | 92.5 | 123 |
| Cc1onc(-c2ccccc2)c1C(=O)NC1C(=O)N2C1SC(C)(C)C2C(=O)[O-].O.[Na+] (configuration not stated) [Oxacillin sodium monohydrate] | 116 | 101 | 100 | 106 |
| CN1C2=CC(=O)C(=NNC(N)=O)C=C2CC1S(=O)(=O)[O-].[Na+] (configuration not stated) [Carbazochrome sodium sulfonate (AC-17)] | 78.4 | 75.2 | 106 | 118 |
| CCNC1(C(N)=O)CCN(c2ncnc3c2nc(-c2ccccc2Cl)n3-c2ccc(Cl)cc2)CC1.Cl | 83.6 | 102 | 100 | 86.4 |
| Cc1c(C(=O)NN2CCCCC2)nn(-c2ccc(Cl)cc2Cl)c1-c1ccc(Cl)cc1 [Rimonabant] | 85.1 | 78.2 | 92.5 | 124 |
| CNCCCC12CCC(c3ccccc31)c1ccccc12.Cl [Maprotiline HCl] | 78.8 | 71.2 | 101 | 70.9 |
| CC(=O)Oc1ccc(C(c2ccc(OC(C)=O)cc2)c2ccccn2)cc1 [Bisacodyl] | 32.3 | 115 | 158 | 190 |
| CCNC1CN(CCCOC)S(=O)(=O)c2sc(S(N)(=O)=O)cc21 (configuration not stated) [Brinzolamide] | 106 | 94.8 | 97.8 | 105 |
| CC(=O)Oc1cc2c(s1)CCN(C(C(=O)C1CC1)c1ccccc1F)C2 (configuration not stated) [Prasugrel] | 87.9 | 87.2 | 92.1 | 92.2 |
| NC1CCCCC1N.O=C([O-])C(=O)[O-].[Pt+2] (configuration not stated) [Oxaliplatin] | 75.5 | 68.6 | 77.4 | 158 |
| CCN(CC)CCNC(=O)c1cc(Cl)c(N)cc1OC [Metoclopramide] | 89.3 | 110 | 86 | 128 |
| Cc1ccc(S(=O)(=O)NC(=O)NN2CC3CCCC3C2)cc1 (configuration not stated) [Gliclazide] | 148 | 104 | 81.9 | 107 |
| CC(=O)Oc1cc2c(s1)CCN(C(C(=O)C1CC1)c1ccccc1F)C2.Cl (configuration not stated) [Prasugrel hydrochloride] | 103 | 113 | 117 | 109 |

| SMILES | cell viability (HCC-1143) | cell viability (HCC-1187) | cell viability (MDA-468) | cell viability (SUM-149) |
| --- | --- | --- | --- | --- |
| CC12CCC(=O)C=C1CCC1C2C(O)CC2(C)C1CCC2(O)C(=O)CO (configuration not stated) [Hydrocortisone] | 98 | 136 | 165 | 131 |
| CCN1CCCC1CNC(=O)c1cc(S(N)(=O)=O)ccc1OC (configuration not stated) [Levosulpiride] | 93 | 118 | 100 | 102 |
| CN=C(NC#N)NCCSCc1nc[nH]c1C [Cimetidine] | 87.5 | 98.2 | 102 | 115 |
| Nc1ccc(S(=O)(=O)Nc2nccs2)cc1 [Sulfathiazole] | 107 | 85.2 | 90.6 | 107 |
| CCCCCOc1ccc(-c2cc(-c3ccc(C(=O)NC4CC(O)C(O)NC(=O)C5C(O)C(C)CN5C(=O)C(C(O)CC(N)=O)NC(=O)C(C(O)C(O)c5ccc(O)c(OS(=O)(=O)[O-])c5)NC(=O)C5CC(O)CN5C(=O)C(C(C)O)NC4=O)cc3)no2)cc1.[Na+] (configuration not stated) [Micafungin sodium] | 86.6 | 112 | 83.6 | 109 |
| COc1cnc(NS(=O)(=O)c2ccc(N)cc2)nc1 [Sulfameter] | 75 | 75.1 | 102 | 97.5 |
| COc1ccccc1OCCNCC(O)COc1cccc2[nH]c3ccccc3c12 (configuration not stated) [Carvedilol] | 102 | 80.4 | 98.6 | 48 |
| CCCCCCCCCCCCCCCCO [1-Hexadecanol] | 79.5 | 84.7 | 91.2 | 109 |
| CCN(CC)CC#CCOC(=O)C(O)(c1ccccc1)C1CCCCC1 (configuration not stated) [Oxybutynin] | 96 | 111 | 123 | 97.7 |
| Cc1ccc(-n2nc(C(C)(C)C)cc2NC(=O)Nc2ccc(OCCN3CCOCC3)c3ccccc23)cc1 [BIRB 796 (Doramapimod)] | 88.5 | 117 | 78.8 | 86.8 |
| C=CC1=C(C(=O)O)N2C(=O)C(NC(=O)C(=NO)c3csc(N)n3)C2SC1 (configuration not stated) [Cefdinir] | 81 | 109 | 104 | 98.7 |
| COC(=O)C=CC(=O)OC [Dimethyl Fumarate] | 105 | 92.3 | 119 | 120 |
| CCn1cc(C(=O)O)c(=O)c2ccc(C)nc21 [Nalidixic acid] | 82 | 88.8 | 91.1 | 99 |
| CCCCOc1ccc(OCCCN2CCOCC2)cc1.Cl [Pramoxine HCl] | 122 | 113 | 89.6 | 123 |
| Cc1cc(Nc2ncc(Cl)c(Nc3ccccc3S(=O)(=O)C(C)C)n2)c(OC(C)C)cc1C1CCNCC1 | 20 | 22.3 | 18.3 | 32 |
| CN1CCN2c3ncccc3Cc3ccccc3C2C1 (configuration not stated) [Mirtazapine] | 93.4 | 96.6 | 123 | 111 |
| COc1cc(Nc2c(C#N)cnc3cc(OCCCN4CCN(C)CC4)c(OC)cc23)c(Cl)cc1Cl [Bosutinib (SKI-606)] | 65.5 | 74.2 | 108 | 56.9 |
| CN1CCN(CCCN2c3ccccc3Sc3ccc(Cl)cc32)CC1 [Prochlorperazine] | 86.2 | 104 | 113 | 70.4 |
| CC(=O)Oc1ccccc1C(=O)O [Aspirin (Acetylsalicylic acid)] | 96.8 | 78.6 | 92.7 | 119 |
| COc1ccc2[nH]cc(CCNC(C)=O)c2c1 [Melatonin] | 96.2 | 75.2 | 92.3 | 102 |
| CC(C)(C)c1ccc(C(=O)CCCN2CCC(OC(c3ccccc3)c3ccccc3)CC2)cc1 [Ebastine] | 70.9 | 93.7 | 102 | 77.5 |
| C1CNCCN1.C[C@@]12CC[C@H]3c4ccc(OS(=O)(=O)O)cc4CC[C@H]3[C@H]1CCC2=O [Estropipate] | 79.8 | 94.1 | 126 | 129 |
| Cc1nnc(C(C)C)n1C1CC2CCC(C1)N2CCC(NC(=O)C1CCC(F)(F)CC1)c1ccccc1 (configuration not stated) [Maraviroc] | 91.1 | 115 | 96.4 | 77 |
| COc1cc2c(cc1OC)C(=O)C(CC1CCN(Cc3ccccc3)CC1)C2.Cl (configuration not stated) [Donepezil HCl] | 112 | 108 | 100 | 123 |
| CCCN(CCC)C(=O)C1=Cc2ccc(-c3ccc(C(=O)N4CCCC4)cc3)cc2NC(=N)C1 [Motolimod (VTX-2337)] | 72.5 | 38.1 | 99.5 | 120 |
| CC12CCC3c4ccc(O)cc4CCC3C1CCC2O (configuration not stated) [Estradiol] | 78.6 | 82.7 | 99.4 | 120 |
